This note sets out measurements from a collection of fitness landscapes (doi:10.1126/science.1257360).

The chains are these.
B1: PhoQ; a variant is named by its letters at X, in order, P23837 (parent)
chain: MKKLLRLFFPLSLRVRFLLATAAVVLVLSLAYGMVALIGYSVSFDKTTFRLLRGESNLFYTLAKWENNKLHVELPENIDKQSPTMTLIYDENGQLLWAQRDVPWLMKMIQPDWLKSNGFHEIEADVNDTSLLLSGDHSIQQQLQEVREDDDDAEMTHSVAVNVYPATSRMPKLTIVVVDTIPVELKSSYMVWSWFIYVLSANLLLVIPLLWVAAWWSLRPIEALAKEVRELEEHNRELLNPATTRELTSLVRNLNRLLKSERERYDKYRTTLTDLTHSLKTPLXXLQXXLRSLRSEKMSVSDAEPVMLEQISRISQQIGYYLHRASMRGGTLLSRELHPVAPLLDNLTSALNKVYQRKGVNISLDISPEISFVGEQNDFVEVMGNVLDNACKYCLEFVEISARQTDEHLYIVVEDDGPGIPLSKREVIFDRGQRVDTLRPGQGVGLAVAREITEQYEGKIVAGESMLGGARMEVIFGRQHSAPKDE

This is one part of the list.

Variants of B1 are the subject of this test. As to the kind of experiment: enrichment ratio after two sorts for PhoP signalling (ratio (wild type AVST 3.29)); higher = more functional. Conditions: with PhoP (E. coli).
On to TQAP, for which the enrichment ratio is at most 0.25.
In the case of LRAW, the enrichment ratio was at most 0.25.
The result for MNYC reads at most 0.25; that for WGYT, at most 0.25.
The value for LWAM was at most 0.25; that for HDHH was at most 0.25.
The result for AAEF reads at most 0.25; that for LDIC, at most 0.25; that for SNVQ, 7.33.
In the case of GECW, the enrichment ratio was at most 0.25.
The result for TNMC reads 35.5; that for YCFV, at most 0.25.
The result for MDSK reads at most 0.25; that for ANYK, at most 0.25.
The value for MQKM was at most 0.25; that for NGHF was at most 0.25.
For TFDD, the enrichment ratio is at most 0.25.
The value for FNHI was at most 0.25; that for PDRA was at most 0.25; that for SCRR was at most 0.25.
The result for VKQF reads at most 0.25.
The value for VMNP was at most 0.25; that for WVHG was at most 0.25; that for QNRC was at most 0.25.
As to NMEY, the enrichment ratio was at most 0.25.
For TEYR, the enrichment ratio is at most 0.25.
The value for MLWR was at most 0.25; that for SVRC was at most 0.25.
The result for QCII reads at most 0.25.
The result for IQGF reads at most 0.25; that for KEYY, at most 0.25.
Take YFAA: the enrichment ratio is at most 0.25.
Consider FMND, for which the enrichment ratio was at most 0.25.
For the variant EVMW, the enrichment ratio is at most 0.25.
The value for VNGR was at most 0.25; that for YGDK was at most 0.25.
On to DRHY, for which the enrichment ratio was at most 0.25.
The result for GTKV reads at most 0.25; that for THLM, 12.3; that for ATFR, at most 0.25.
The result for YSPH reads at most 0.25; that for MLRT, at most 0.25; that for QLVK, at most 0.25.
The result for MTKC reads at most 0.25; that for LTPH, at most 0.25; that for VFQA, at most 0.25.
Turning to VPAP, the enrichment ratio was at most 0.25.
The value for EVGV was at most 0.25; that for SRIG was at most 0.25.
The value for EGDK was at most 0.25; that for YQAH was at most 0.25; that for RWGY was at most 0.25.
The value for NLVK was at most 0.25; that for FIWC was at most 0.25; that for NHWQ was at most 0.25.
As to QAPY, the enrichment ratio was at most 0.25.
The result for YGVV reads at most 0.25; that for QASR, at most 0.25.
The result for LPFR reads at most 0.25.
As for FQMG, the enrichment ratio worked out at 1.33.
The value for SVTA was 5.44; that for DHHI was at most 0.25; that for HICS was at most 0.25.
The value for PTCW was at most 0.25; that for RAMA was at most 0.25.
The value for APRM was at most 0.25; that for SPQW was at most 0.25; that for IPVE was at most 0.25.
Turning to FVMC, the enrichment ratio is at most 0.25.
The result for GVYD reads at most 0.25; that for NNFG, at most 0.25.
The value for QTCY was at most 0.25.
The result for WWGI reads at most 0.25.
KRRR: the enrichment ratio is at most 0.25.
The value for MPLV was at most 0.25; that for NMNG was at most 0.25.
Consider FTMK, for which the enrichment ratio was at most 0.25.
The result for PWMC reads at most 0.25; that for TNMF, 0.451.
The value for YKQN was at most 0.25.
The value for NKTN was at most 0.25; that for DHLA was at most 0.25; that for DEYS was at most 0.25.
In the case of ISQH, the enrichment ratio is at most 0.25.
For the variant LKYE, the enrichment ratio was at most 0.25.
The result for HTNH reads at most 0.25; that for NVRD, 1.51; that for SEGK, at most 0.25.
For the variant RHHP, the enrichment ratio is at most 0.25.
The result for RNVY reads at most 0.25; that for RCYQ, at most 0.25; that for VSMC, 1.5.
For the variant ISKS, the enrichment ratio is at most 0.25.
For GVFI, the enrichment ratio is at most 0.25.
The value for SISA was 11.9.
The value for SYWC was at most 0.25.
The result for IDFP reads at most 0.25.
Turning to SSWP, the enrichment ratio was at most 0.25.
The result for EAIY reads at most 0.25; that for TVSF, 9.17.
The value for RYFY was at most 0.25; that for FYWL was at most 0.25.
For the variant SPPK, the enrichment ratio is at most 0.25.
The result for HHWK reads at most 0.25; that for EKRT, at most 0.25; that for PNFW, at most 0.25.
The result for LKDS reads at most 0.25; that for PLNA, at most 0.25; that for KGRI, at most 0.25.
The result for EHCC reads at most 0.25; that for TYMH, at most 0.25; that for INRH, at most 0.25.
Take YVEP: the enrichment ratio is at most 0.25.
The value for QCVP was at most 0.25; that for KMLW was at most 0.25; that for IISA was at most 0.25.
The result for GIPK reads at most 0.25.
The value for GPRS was at most 0.25.
Turning to TNKV, the enrichment ratio is at most 0.25.
The value for MTHG was at most 0.25; that for PRIC was at most 0.25; that for QFFW was at most 0.25.
The value for PNHM was at most 0.25; that for DYHS was at most 0.25; that for AQMS was 2.72.
The value for VIEK was at most 0.25.
Turning to QGIL, the enrichment ratio is 0.742.
The result for DAAF reads at most 0.25; that for FGRK, at most 0.25; that for NDRD, at most 0.25.
The value for PMDS was at most 0.25; that for ALPG was at most 0.25.
The value for LYVN was at most 0.25; that for SGNY was at most 0.25; that for YPSK was at most 0.25.
In the case of SCCA, the enrichment ratio turned out to be 8.33.
The value for TGMS was 12.8; that for QFCA was at most 0.25; that for INSR was at most 0.25.
The result for NNIC reads at most 0.25.
As for FIRS, the enrichment ratio was at most 0.25.
The result for KRAA reads at most 0.25.
Take FAPK: the enrichment ratio is at most 0.25.
The result for TIKF reads at most 0.25; that for MQDL, at most 0.25.
The result for MWSN reads at most 0.25; that for VSGN, at most 0.25.
On to AKNG, for which the enrichment ratio was at most 0.25.
The value for HIWC was at most 0.25.
In the case of MQPD, the enrichment ratio was at most 0.25.
As to PGTY, the enrichment ratio is at most 0.25.
The result for ADYW reads at most 0.25.
The result for MQCI reads 1.41.
